Data published in the supplement of paper PMC3334620.
Whole data set: some 33,000 sequences, median “E-score (-0.5 to 0.5)” near -0.021, cut for the highest 2% near 0.32. This is one part of the list.

biological target: T1, Zap1 (UniProt P47043); test: PBM E-score (8-mer binding enrichment) (E-score (-0.5 to 0.5)); higher = stronger / more preferred TF binding; most listed sequences are background and not binding sites; conditions: protein concentration: 200 nM; construct: GST-full length
T1 sequence: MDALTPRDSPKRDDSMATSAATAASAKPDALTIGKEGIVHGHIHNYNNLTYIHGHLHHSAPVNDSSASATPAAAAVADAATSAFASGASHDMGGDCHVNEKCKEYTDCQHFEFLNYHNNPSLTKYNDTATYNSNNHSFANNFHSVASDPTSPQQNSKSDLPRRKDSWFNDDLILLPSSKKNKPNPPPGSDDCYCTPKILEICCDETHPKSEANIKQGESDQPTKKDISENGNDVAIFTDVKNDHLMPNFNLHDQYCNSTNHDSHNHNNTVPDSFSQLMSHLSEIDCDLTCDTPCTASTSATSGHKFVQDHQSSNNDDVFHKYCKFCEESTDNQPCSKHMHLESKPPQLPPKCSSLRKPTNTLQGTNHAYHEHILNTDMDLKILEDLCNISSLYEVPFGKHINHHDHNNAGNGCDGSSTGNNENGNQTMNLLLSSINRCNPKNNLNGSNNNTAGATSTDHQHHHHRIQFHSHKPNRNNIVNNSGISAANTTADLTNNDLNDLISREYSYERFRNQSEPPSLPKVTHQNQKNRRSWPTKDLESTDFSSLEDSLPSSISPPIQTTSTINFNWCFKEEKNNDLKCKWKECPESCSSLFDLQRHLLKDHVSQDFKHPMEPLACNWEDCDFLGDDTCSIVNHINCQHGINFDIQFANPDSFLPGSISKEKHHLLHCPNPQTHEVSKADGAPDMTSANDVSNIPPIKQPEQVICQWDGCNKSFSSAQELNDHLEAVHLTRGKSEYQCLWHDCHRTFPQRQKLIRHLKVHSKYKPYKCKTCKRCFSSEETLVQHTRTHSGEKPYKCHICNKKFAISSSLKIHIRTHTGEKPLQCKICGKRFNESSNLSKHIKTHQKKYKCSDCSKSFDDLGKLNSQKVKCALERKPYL
Experimental: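 Universal 'all 10-mer' protein binding microarrays (Agilent AMADID 015681) probed with GST-tagged S. cerevisiae TFs (full-length or DBD) made by in vitro transcription/translation (PURExpress), about 100-200 nM. Bound TF was detected with fluorescent anti-GST. Each ungapped 8-mer (which stands for itself and its reverse complement) is scored by the PBM enrichment score (E-score), a modified Wilcoxon-Mann-Whitney statistic from -0.5 to +0.5, computed with the Universal PBM Analysis Suite. Scale: above 0.35 generally sequence-specific binding.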

Sequence	PBM E-score
AATACCGT	0.0758
AACTGCAA	0.0405
ATGTTCCC	-0.156
ACCCCTAG	0.341
ACGTATAA	-0.0471
ATTCCAGC	-0.183
CCCCGTCA	-0.0604
AGTCTTCC	-0.161
GGTGAGAC	-0.0582
GAATTTGC	-0.183
CGGATGCA	-0.0921
ACTAAAGT	-0.0221
AGGAAAGC	-0.223
CGACAATC	-0.189
GAACTCAC	0.013
CTTGAAGC	0.00891
ATAGGCGC	-0.134
GCCCTGGA	-0.181
CCCGATGC	-0.215
ACACAAAC	0.166
ACACCAGT	-0.0248
AGAACCCA	0.19

Sequence	PBM E-score
GAGGACCA	-0.0833
TATTTGGA	-0.152
GGCTATGA	-0.172
CATAGGAA	-0.142
CCCAGACA	-0.00707
AGTCCTCC	-0.144
CCACGAGA	-0.0813
GCACTGAC	-0.156
CGCGCAAC	0.0629
ATGGACCA	0.119
CGGCGGAA	-0.0432
AATCTAAT	-0.0502
ATCCGTGC	0.0137
GTGTGTTA	0.144
CTAGAGTA	-0.0442
AACCCTTC	0.424
CTCCCTCA	-0.188
ATCAATAG	0.0709
AATTCGTC	-0.0404
AAATGGGG	-0.0511
CCACGTTA	0.152
ATAGGACA	-0.15

Sequence	PBM E-score
ACTATCCA	-0.0951
CCGCAGCA	-0.0602
ATTACCTG	0.149
CTTTTAAA	0.117
AAGGCCGT	0.0959
AGTGTTAC	0.0824
AGGCGCCG	-0.0446
ACCGCATG	0.146
ACGCTTGA	0.0154
GTAGTATA	0.165
AAATGGCA	-0.0227
AAGGCTTA	-0.295
CATGCTCG	-0.241
CAAAGGGC	0.0554
ATGGGACG	0.0501
ATGTTAAT	0.082
GAGGGACA	-0.116
ATTCTAAA	0.0868
CCATTGAC	-0.0454
AGATTAAA	0.2
CCAGCCGC	-0.287
AGAGTACG	-0.00063

Sequence	PBM E-score
TCCGTTCA	-0.31
AGGCTCGC	-0.122
AACGTAAT	0.0746
CGAAGGAA	0.0492
ATCGGAGC	-0.137
ATAAGGGA	-0.0487
TCACGTAA	0.0653
GTCGATTA	0.105
CGGCCAAA	0.0749
ATTGTTAA	0.00657
CACCGCTA	0.0167
CTGTTAAG	0.0289
AACTGTGT	-0.0115
GCTTGACA	-0.141
AGCAAGCA	-0.167
GGTTACCA	0.468
TCCATGAA	-0.0151
CGAGCAAC	-0.072
ACGGCCAT	0.218
GCCCCCGC	-0.322
